# In the supplement of paper PMC8728848:
# This is one part of the list.
# B1: CTLY 1 (Homo sapiens), Q6ZS10 (protein)
# chain: AITCPEGWLPFEGKCYYFSPSTKSWDEARMFCQENYSHLVIINSFAEHNFVAKAHGSPRVYWLGLNDRAQEGDWRWLDGSPVTLSFWEPEEPNNIHDEDCATMNKGGTWNDLSCYKTTYWICERKGLNDIFEAQKIEWHE
# Assays:
# Assay in all cases: glycan array binding signal (z-score within array); higher = stronger binding
# Details in all cases: glycan notation: IUPAC condensed, linker removed
# Neu5Ac(a2-8)Neu5Ac = biological target: Neu5Ac(a2-8)Neu5Ac
# How it was run: (§1)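 Glycan array binding is given as a within-array Z-score, which can be read as non-binding when negative. The arrays, 3228 of them, came from the Consortium for Functional Glycomics database and were retained only where the protein sequence was available. Z-scores were averaged across arrays of the same protein sequence at different concentrations or buffers and across linkers.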
# [1] = biological target: Neu5Ac(a2-8)Neu5Ac(a2-3)Gal(b1-4)Glc
# How it was run: as §1
# [2] = biological target: Neu5Ac(a2-8)Neu5Ac(a2-3)[GalNAc(b1-4)]Gal(b1-4)Glc
# How it was run: as §1
# [3] = biological target: Neu5Ac(a2-8)Neu5Ac(a2-8)Neu5Ac
# How it was run: as §1
# [4] = biological target: Neu5Ac(a2-8)Neu5Ac(a2-8)Neu5Ac(a2-3)Gal(b1-4)Glc
# How it was run: as §1
# [5] = biological target: Neu5Ac(a2-8)Neu5Ac(a2-8)Neu5Ac(a2-3)[GalNAc(b1-4)]Gal(b1-4)Glc
# How it was run: as §1
# [6] = biological target: Neu5Ac(a2-8)Neu5Ac(a2-8)Neu5Ac(a2-8)Neu5Ac(a2-3)[GalNAc(b1-4)]Gal(b1-4)Glc
# How it was run: as §1
# [7] = biological target: Neu5Ac(b2-6)Gal(b1-4)GlcNAc
# How it was run: as §1
# Neu5Ac(b2-6)GalNAc = biological target: Neu5Ac(b2-6)GalNAc
# How it was run: as §1
# [8] = biological target: Neu5Ac9Ac(a2-3)Gal(b1-3)GlcNAc
# How it was run: as §1
# [9] = biological target: Neu5Ac9Ac(a2-3)Gal(b1-4)GlcNAc
# How it was run: as §1
# [10] = biological target: Neu5Ac9Ac(a2-6)Gal(b1-4)GlcNAc
# How it was run: as §1
# [11] = biological target: Neu5Gc(a2-3)Gal(b1-3)GlcNAc
# How it was run: as §1
# [12] = biological target: Neu5Gc(a2-3)Gal(b1-3)[Fuc(a1-4)]GlcNAc
# How it was run: as §1
# Neu5Gc(a2-3)Gal(b1-4)Glc = biological target: Neu5Gc(a2-3)Gal(b1-4)Glc
# How it was run: as §1
# [13] = biological target: Neu5Gc(a2-3)Gal(b1-4)GlcNAc
# How it was run: as §1
# [14] = biological target: Neu5Gc(a2-3)Gal(b1-4)[Fuc(a1-3)]GlcNAc
# How it was run: as §1
# [15] = biological target: Neu5Gc(a2-6)Gal(b1-4)GlcNAc
# How it was run: as §1
# Neu5Gc(a2-6)GalNAc = biological target: Neu5Gc(a2-6)GalNAc
# How it was run: as §1
# [16] = biological target: Neu5Gc(b2-6)Gal(b1-4)GlcNAc
# How it was run: as §1
binder,measurement,setting,value
B1,glycan array binding signal (z-score),Neu5Ac(a2-8)Neu5Ac,-0.246
same,glycan array binding signal (z-score),[1],-0.252
same,glycan array binding signal (z-score),[2],-0.233
same,glycan array binding signal (z-score),[3],-0.242
same,glycan array binding signal (z-score),[4],-0.241
same,glycan array binding signal (z-score),[5],-0.23
same,glycan array binding signal (z-score),[6],-0.23
same,glycan array binding signal (z-score),[7],-0.25
same,glycan array binding signal (z-score),Neu5Ac(b2-6)GalNAc,-0.251
same,glycan array binding signal (z-score),[8],-0.261
same,glycan array binding signal (z-score),[9],-0.24
same,glycan array binding signal (z-score),[10],-0.246
same,glycan array binding signal (z-score),[11],-0.231
same,glycan array binding signal (z-score),[12],0.069
same,glycan array binding signal (z-score),Neu5Gc(a2-3)Gal(b1-4)Glc,-0.243
same,glycan array binding signal (z-score),[13],-0.263
same,glycan array binding signal (z-score),[14],-0.203
same,glycan array binding signal (z-score),[15],-0.257
same,glycan array binding signal (z-score),Neu5Gc(a2-6)GalNAc,-0.226
same,glycan array binding signal (z-score),[16],-0.24
